Experimental findings from the supplement of paper PMC8047034 are described below.

Each structure is given as a SMILES string. This is one part of the list. Single values are uncertain, as repeats are few or missing.

The test system of one experiment is OVCAR4. The experiment in a line: log2 surviving fraction (library drug vs vehicle, or drug + carboplatin vs carboplatin alone; relative to plate median); ovarian cancer lines: OVCAR4 is platinum-sensitive and Ov4Carbo platinum-resistant; higher = more cell survival. The note with it: library drug concentration 10 µM, 7 days.
The next experiment has as its system Ov4Carbo. The description is as above. The settings on record: library drug concentration 10 µM, 7 days.

For `CC[C@@H](C(N)=O)N1CCCC1=O` [Levetiracetam], the log2 surviving fraction in the experiment with OVCAR4 (carboplatin co-treatment 0 µM) is 1.14; in the experiment with OVCAR4 (carboplatin co-treatment 5 µM), -0.369; in the experiment with Ov4Carbo (carboplatin co-treatment 0 µM), 0.568; in the experiment on Ov4Carbo (carboplatin co-treatment 5 µM), -0.176.
As to `N#C[C@@H]1C[C@@H]2C[C@@H]2N1C(=O)[C@@H](N)C12CC3CC(CC(O)(C3)C1)C2`, the log2 surviving fraction in the experiment on OVCAR4 (carboplatin co-treatment 0 µM) was 0.921; in the experiment with OVCAR4 (carboplatin co-treatment 5 µM) it was 0.496; with Ov4Carbo (carboplatin co-treatment 0 µM), 0.699; in the experiment with Ov4Carbo (carboplatin co-treatment 5 µM), -0.0672.
Take `Cc1nc(-c2ccc(OCC(C)C)c(C#N)c2)sc1C(=O)O` [Febuxostat (Uloric)]: the log2 surviving fraction in the experiment on OVCAR4 (carboplatin co-treatment 0 µM) is 0.825; in the experiment on OVCAR4 (carboplatin co-treatment 5 µM) it was 0.379; in the experiment on Ov4Carbo (carboplatin co-treatment 0 µM) it was 0.38; with Ov4Carbo (carboplatin co-treatment 5 µM), 0.0554.
Regarding `CN(C)[C@@H]1C(O)=C(C(N)=O)C(=O)[C@@]2(O)C(O)=C3C(=O)c4c(O)cccc4[C@@](C)(O)[C@H]3[C@H](O)[C@@H]12` [Oxytetracycline dihydrate], the log2 surviving fraction with OVCAR4 (carboplatin co-treatment 0 µM) stood at 0.8; with OVCAR4 (carboplatin co-treatment 5 µM), 0.775; in the experiment on Ov4Carbo (carboplatin co-treatment 0 µM), 0.659; with Ov4Carbo (carboplatin co-treatment 5 µM), 1.81.
Consider `CC[C@H]1OC(=O)[C@H](C)[C@@H](O[C@H]2C[C@@](C)(OC)[C@@H](O)[C@H](C)O2)[C@H](C)[C@@H](O[C@@H]2O[C@H](C)C[C@H](N(C)C)[C@H]2O)[C@](C)(O)C[C@@H](C)C(=O)[C@H](C)[C@@H](O)[C@]1(C)O` [Erythromycin (E-Mycin)], for which the log2 surviving fraction in the experiment on OVCAR4 (carboplatin co-treatment 0 µM) is 0.357; in the experiment with OVCAR4 (carboplatin co-treatment 5 µM), 0.184; in the experiment with Ov4Carbo (carboplatin co-treatment 0 µM), -1.43; with Ov4Carbo (carboplatin co-treatment 5 µM) it was -0.276.
For `CN1CCC(=C2c3ccccc3CCc3sccc32)CC1` [Pizotifen malate], the log2 surviving fraction in the experiment on OVCAR4 (carboplatin co-treatment 0 µM) was -0.342; in the experiment with OVCAR4 (carboplatin co-treatment 5 µM), -1.22; in the experiment with Ov4Carbo (carboplatin co-treatment 0 µM) it was -1.26; with Ov4Carbo (carboplatin co-treatment 5 µM), -2.28.
For `N#CC1(c2ccc(NC(=O)c3cccnc3NCc3ccncc3)cc2)CCCC1` [Apatinib (YN968D1)], the log2 surviving fraction in the experiment on OVCAR4 (carboplatin co-treatment 0 µM) was -2.86; in the experiment on OVCAR4 (carboplatin co-treatment 5 µM), -2.33; with Ov4Carbo (carboplatin co-treatment 0 µM), -0.307; with Ov4Carbo (carboplatin co-treatment 5 µM), -0.716.
With `O=C1CC[C@@H](C(=O)N2CSC[C@H]2C(=O)O)N1` [Pidotimod], the log2 surviving fraction in the experiment on OVCAR4 (carboplatin co-treatment 0 µM) is 0.721; in the experiment with OVCAR4 (carboplatin co-treatment 5 µM), 0.898; in the experiment with Ov4Carbo (carboplatin co-treatment 0 µM) it was 0.436; in the experiment on Ov4Carbo (carboplatin co-treatment 5 µM) it was -0.392.
